In all, about 50,000 compounds went through this assay and about 800 (1.6%) showed an effect of 50% or more. Some of the results follow.

The test concerns the target Bcl-2-like protein 10 (Homo sapiens) (UniProt Q9HD36). Briefly: TR3 peptide-Bcl-B binding displacers, biochemical primary FP assay, phenotype converters (AID 1240).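 Also: 0% = Bcl-B with tracer peptide and DMSO and 100% = tracer peptide lacking Bcl-B.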 To be noted: GST-Bcl-B / FITC-TR3 peptide fluorescence polarization; stronger effect = higher value; compound at 3.75 mg/L.
Sequence of UniProt Q9HD36 (Q9HD36 whole entry, looked up): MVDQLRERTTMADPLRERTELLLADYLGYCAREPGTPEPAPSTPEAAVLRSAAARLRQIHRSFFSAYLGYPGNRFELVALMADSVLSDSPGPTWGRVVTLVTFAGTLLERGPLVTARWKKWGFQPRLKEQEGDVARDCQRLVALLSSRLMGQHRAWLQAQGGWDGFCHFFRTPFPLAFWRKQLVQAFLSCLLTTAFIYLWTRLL
`O=S(=O)(Nc1ccc(O)c(-c2c(O)ccc3ccccc23)c1)c1cc(Cl)ccc1Cl`: the displacement worked out at 12.7%.

As for `COc1ccc(N(CC(=O)NC(C)c2ccccc2)S(C)(=O)=O)cc1` (stereo not given), the displacement was 11.3%. Regarding `O=C(CSc1nc2ccccc2s1)c1ccc(Cl)cc1Cl`, the displacement was -1%.

With `O=C1NN(c2ccccc2)C(=O)/C1=C/c1ccc(-c2ccccc2[N+](=O)[O-])o1`, the displacement was -15.8%. Regarding `O=C(Nc1c(F)cc(F)cc1Br)c1cc2n(n1)C(C(F)(F)F)CC(c1cccs1)N2` (stereo not given), the displacement worked out at 4.3%. As for `CCCCCSc1nnc2c(n1)[nH]c1ccccc12`, the figure is 5%.

For the compound `Cn1c(=O)c2c(nc(SCc3ccc([N+](=O)[O-])cc3)n2C)n(C)c1=O`, the displacement amounted to 19%.

In the case of `C=CCNC(=O)c1ccc(-c2ccc([N+](=O)[O-])cc2C)o1`, the displacement was 9.1%. In the case of `O=C(Nc1ccc(OC(F)(F)F)cc1)c1ccc2ccccc2c1`, the displacement is 0.4%.

As for `CCN1C(=O)/C(=C\c2ccc(O)c(OC)c2)C(C(=O)OC)=C1C`, the displacement came to 10%.

For `CC1(C)CC(=O)C2=C(C1)N=C1c3ccccc3C(=O)C1C2c1cccs1` (stereo not given), the displacement was -0.6%. Take `Cc1ccc(N2C(=O)/C(=C/c3cc(Br)ccc3O)C(=O)NC2=S)cc1`: the displacement came to 7.5%.

As to `CCOC(=O)c1cnc(-c2ccccc2)nc1NC`, the displacement was -9.7%. Take `CCOCCOC(=O)c1cccc(NC(=O)Cc2ccccc2)c1`: the displacement is -2.4%. Turning to `S=c1[nH]nc(-c2ccccc2Br)n1C1CCCCC1`, the displacement was -0.7%. Take `Nc1nonc1-n1nnc(C(=O)N/N=C/c2cccc(O)c2)c1-c1ccccc1`: the displacement worked out at 24.6%. For `N/C(=N\OC(=O)c1ccc(Cl)cc1Cl)c1ccc(Br)cc1`, the displacement was 1.6%. As for `Cc1ccccc1NC(=S)NC(=O)/C=C/c1ccccc1`, the displacement amounted to 12.7%. On to `CN(C)CCCN1C(=O)CSC1c1cccc([N+](=O)[O-])c1` (stereo not given), for which the displacement was -7.8%. Turning to `CC(=O)c1sc(Nc2ccc(Br)cc2)nc1C`, the displacement was -1%. Take `O=C1OC(c2ccc(Cl)cc2)=C/C1=C\c1ccccc1`: the displacement was -9.7%.

Consider `COc1ccc(/C=C2/SC(=S)N(CCc3ccccc3)C2=O)cc1OC`, for which the displacement amounted to 105%.

`C=CCN1C(=O)/C(=C/c2ccccc2OCc2ccc([N+](=O)[O-])cc2)SC1=S`: the displacement was 12.1%. In the case of `COc1cc(C2Nc3ccccc3NC3=C2C(=O)CC(c2ccc4c(c2)OCO4)C3)ccc1OC(C)=O` (stereo not given), the displacement stood at 7.4%. Take `CCOc1cc(-c2ccc(OC)c(OC)c2)cc(=O)c2c(C)oc(C)c12`: the displacement was 4.7%. In the case of `CCOC(=O)c1c(N2C(=O)CC(Sc3ccccc3C(=O)O)C2=O)sc2c1CCCC2` (stereo not given), the displacement was -2.5%. Take `N=C1S/C(=C\c2ccc(-c3ccccc3C(=O)O)o2)C(=O)N1c1ccc2c(c1)OCO2`: the displacement was -2.2%. Take `CC(C)(C)c1ccc(CSc2nnnn2-c2ccccc2)cc1`: the displacement is -3%.

As for `C=C(Br)Cn1c(COc2ccccc2)nc2ccccc21`, the displacement is -13.5%. The figure for `COC(=O)C1=NN(C(=O)OC(C)(C)C)C(O)(C(C)(C)C)C1` (stereo not given) is 7.6%.

The record behind these values is PubChem BioAssay AID1240 (Sanford-Burnham Center for Chemical Genomics, 2008).
